From US20200079850A1 (SUTRO BIOPHARMA, published 2020)

Key:
[1] = molecular target: T1, human PD-1 expressed on the surface of CHO cells (human, UniProt Q15116 25-288); test: flow cytometry cell binding on CHO cells expressing human PD-1; PE anti-human IgG detection; one site-specific binding with Hill slope fit
T1 construct: I took it as human PD-1; also called CHO-PD1
Description: CHO-k cells stably expressing PD-1 or LAG3 (human or cynomolgus) on the cell surface were used to assess binding affinity of anti-PD-1/LAG3 bispecific antibody constructs. Cells were seeded at 100,000 cells/well in 100 μL of FACS buffer (1×PBS, 0.5% BSA, 0.1% sodium azide) in 96-well polypropylene plates. The cells were centrifuged at 1.5K rpm and resuspended with test antibodies diluted in FACS buffer and incubated on ice for 1 hour. The cells were washed twice with FACS buffer and incubated on ice for 30 mins with R-Phycoerythrin-AffiniPure F(ab′)2 Fragment Goat Anti-Human IgG (H+L) secondary detection antibody (1:200 dilution, Jackson ImmunoResearch Laboratories, West Grove, Pa.). The cells were washed twice with FACS buffer, fixed in 4% paraformaldehyde in PBS (Santa Cruz Biotechnology; Dallas, Tex.) for 20 mins on ice in the dark, washed twice with FACS buffer, and analyzed using the BD LSR II Flow Cytometer (BD Biosciences; San Jose, Calif.). Data were analyzed using FlowJo (FlowJo, LLC; Ashland, Oreg.) to determine mean fluorescence intensities. Binding constants were calculated using the statistical software, GraphPad Prism (GraphPad Software; La Jolla, Calif.) using the nonlinear regression equation, one site—specific binding with Hill slope. The secondary antibody by itself was used as a control.

[2] = molecular target: T2, recombinant human LAG3 protein (rhLAG3), HIS-tagged (ACRO) or biotinylated (R&D Cat #2319-C3) (human, UniProt P18627 23-450, biotinylated in part of the assays); test: flow cytometry competition: inhibition of biotinylated rhLAG3 binding to MHC class II on Daudi cells; PE-streptavidin detection
T2 sequence: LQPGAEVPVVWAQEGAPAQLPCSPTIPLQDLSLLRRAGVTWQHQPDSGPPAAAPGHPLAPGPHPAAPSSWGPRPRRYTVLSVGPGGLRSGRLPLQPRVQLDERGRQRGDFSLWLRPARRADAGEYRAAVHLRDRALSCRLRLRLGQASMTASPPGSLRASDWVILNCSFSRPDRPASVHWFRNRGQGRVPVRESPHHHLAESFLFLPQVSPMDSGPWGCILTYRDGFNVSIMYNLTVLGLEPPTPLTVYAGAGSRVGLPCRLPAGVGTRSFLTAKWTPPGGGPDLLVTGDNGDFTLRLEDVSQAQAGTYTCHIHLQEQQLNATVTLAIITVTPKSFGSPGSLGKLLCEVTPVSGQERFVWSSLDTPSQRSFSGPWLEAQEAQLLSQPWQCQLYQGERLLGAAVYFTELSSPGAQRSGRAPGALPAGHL
Description: Daudi cells expressing Major Histocompatibility Class II (MHCII) molecules, the natural ligand for LAG3, were used to measure the ability of anti-PD1/LAG3 bi-specific antibody constructs to block biotinylated (ThermoFisher, Cat #21329) recombinant human LAG3 protein (rhLAG3, R&D Cat #2319-C3) binding. Cells were seeded at 100,000 cells/well in 100 μL of FACS buffer in 96-well polypropylene plates. The cells were centrifuged and resuspended with test antibodies (2× concentration) diluted in FACS buffer, immediately followed by equal volume of biotinylated rhLAG3 (added at 2× concentration; 7.5 μg/mL final). Cells were incubated on ice for 1 hour and washed twice. Biotinylated rhLAG3 binding was detected with 2 μg/mL R-Phycoerythrin-conjugated Streptavidin (eBioscience) for 30 minutes. Cells were washed twice with FACS buffer, fixed in 4% paraformaldehyde in PBS for 20 mins on ice in the dark, washed twice with FACS buffer, and analyzed using the BD LSR II Flow Cytometer. Data were analyzed using FlowJo (FlowJo, LLC; Ashland, Oreg.) to determine mean fluorescence intensities. Prism 6 software was used to create one site, specific binding with Hill slope curves (Log transform) to determine IC₅₀ values. […]

[3] = molecular target: T3, hPD1 (Acro Biosystems), SPR analyte (human, UniProt Q15116 partial chain); test: SPR (Biacore), antibody captured by anti-Fc, hPD1 as analyte, 25 C
T3 construct: also called human PD1 kinetics
Description: Anti-Fc polyclonal antibodies were immobilized onto a CMS chip (GE Life Sciences) using amine coupling chemistry (from Amine Coupling Kit, GE Life Sciences). The immobilization steps were carried out at a flow rate of 25 μl/min in 1×HBS-EP+buffer (GE Life Sciences; 10× Stock diluted before use). The sensor surfaces were activated for 7 min with a mixture of NHS (0.05 M) and EDC (0.2 M). The Anti-Fc antibodies were injected over all 4 flow cells at a concentration of 25 ug/ml in 10 mM sodium acetate, pH 4.5, for 7 min. Ethanolamine (1 M, pH 8.5) was injected for 7 min to block any remaining activated groups. An average of 12,000 response units (RU) of capture antibody was immobilized on each flow cell.
Kinetic binding experiments were performed at 25° C. using 1×HBS-EP+buffer. Test and control antibodies were injected over the anti-Fc surface at concentrations of 5-10 μg/mL for 12 seconds at a flow rate of 10 μl/min on flow cells 2, 3 and 4, followed by a buffer wash for 30 seconds at the same flow rate. Kinetic characterization of antibody samples was carried out with a dilution series of antigen and 1 injection of 0 nM antigen. After capturing ligand (antibody) on the anti-Fc surface, the analyte (hPD1 or hLAG3, Acro Biosystems, Newark, Del.) was bound at 100, 25, 6.25 and 0 nM for 180 seconds, followed by a 450 second dissociation phase at a flow rate of 50 μl/min. Between each ligand capture and analyte binding cycle, regeneration was carried out using 2 injections of 10 mM Glycine pH 2.0 for 30 seconds at 30 μL/min, followed by a 30 second buffer wash step.
The data was fit with the Biacore T200 Evaluation software, using a 1:1 Langmuir binding model. KD (affinity, nM) was determined as a ratio of the kinetic rate constants calculated from the fits of the association and dissociation phases.

Bmax [1]: 3030 MFI
Kd [1]: 0.5 nM
IC50 [2]: 39 nM
Kd [3]: 1.52 nM
koff [3]: 0.000849 s⁻¹
kon [3]: 559000 M⁻¹ s⁻¹
B1: PD-1/LAG3 Bi-specific Construct A: aPD1 1353-G10 scFv_zwB × aLAG3 Fab_zwA (bispecific antibody, human IgG1, kappa)
scFv: MEVQLVQSGAEVKKPGASVKVSCKASGYRFPHYGISWVRQAPGQGLEWMGWISAYNGNTNYAQKLQGRVTMTTDTSTNTAYMELRSLRSDDTAVYYCARDVDYGTGSGYWGQGTLVTVSSGGGGSGGGGSGGGGSSYELTQPPSVSVSPGQTARITCSGDALPKQYAYWYQQKPGQAPVMVIYKDTERPSGIPERFSGSSSGTKVTLTISGVQAEDEADYYCQSADNSITYRVFGGGTKVTVLAAGSDQ[no letters for human IgG1 Fc with changes]
heavy: MQVQLVESGGGVVQPGRSLRLSCAASGFTFSSYGMHWVRQAPGKGLEWVAVIWYDGSYKYYADSVKGRFTISRDNSKNTLYLQMNSLRAEDTAVYYCAREEAPENWDYALDVWGQGTTVTVSSASTKGPSVFPLAPSSKSTSGGTAALGCLVKDYFPEPVTVSWNSGALTSGVHTFPAVLQSSGLYSLSSVVTVPSSSLGTQTYICNVNHKPSNTKVDKKVEPKSCDKTHTCPPCPAPELLGGPSVFLFPPKPKDTLMISRTPEVTCVVVDVSHEDPEVKFNWYVDGVEVHNAKTKPREEQYNSTYRVVSVLTVLHQDWLNGKEYKCKVSNKALPAPIEKTISKAKGQPREPQVYVYPPSREEMTKNQVSLTCLVKGFYPSDIAVEWESNGQPENNYKTTPPVLDSDGSFALVSKLTVDKSRWQQGNVFSCSVMHEALHNHYTQKSLSLSPGK
light: [no letters for about 100 residues][no letters for about 120 residues]
notes: also called 1449-G09.2-Fab-zwA
